Results: US20240189331A1, “NOVEL […] FILM FORMULATION” (INTELGENX CORP., priority 2021, published 2024)

Experiment: In vitro permeability study in 6 station Franz diffusion cell apparatus using porcine buccal mucosa
Conditions: neutral media: artificial saliva (pH=6.8), real saliva (pH=7.3), phosphate buffer solution (pH=7); FIG. 6

## CN(C)CCc1c[nH]c2cccc(OP(=O)(O)O)c12 [psilocybin, [3-(2-Dimethylaminoethyl)-1H-indol-4-yl]dihydrogen phosphate]
  diffusion through porcine buccal mucosa: not able to permeate
